In assay [1] the target is HA-VHL wild-type (pVHL), stably expressed in 786-O cells (human) (UniProt P40337). Kind of assay: co-IP; anti-HA immunoprecipitation from lysates of 786-O cells stably expressing HA-VHL (EBC buffer: 50 mM Tris pH 8.0, 120 mM NaCl, 0.5% NP-40), immunoblot for endogenous TFAM; cells with shSCR, shEGLN1 or shEGLN2 included.
The target of assay [2] is HA-VHL-L188V (type 2C mutant), stably expressed in 786-O cells (human) (UniProt P40337). Described as above.
Assay [3] concerns the target HA-VHL wild-type (pVHL), stably expressed in 786-O cells (human) (UniProt P40337). Kind of assay: proximity ligation; in situ PLA with TFAM and VHL antibodies in fixed, permeabilised 786-O cells (VHL WT against pRC3), MitoTracker Red staining, confocal microscopy.
Assay [4] has the same target. Kind of assay: co-IP; anti-HA immunoprecipitation from lysates of 786-O HA-VHL WT cells in which EGLN3 was downregulated with lentiviral shRNA.

By UniProt entry, the sequences of proteins in these tests, tags left out. Where a name states a change or a piece, a line headed by the entry shows the natural chain unless it says otherwise.
UniProt P40337: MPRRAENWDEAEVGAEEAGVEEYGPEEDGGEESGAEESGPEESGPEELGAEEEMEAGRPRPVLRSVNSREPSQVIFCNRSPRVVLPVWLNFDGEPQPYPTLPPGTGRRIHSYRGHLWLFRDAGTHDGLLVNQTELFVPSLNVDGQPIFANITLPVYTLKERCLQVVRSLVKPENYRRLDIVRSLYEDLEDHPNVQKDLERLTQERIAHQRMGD

Our source for the binding values is PMC9236906.

These are yes or no findings as the source states them, for the method shown. Binding seen in cells or lysates may run through a third protein. Some binding calls cover weakened binding; strength is not graded here.

B1: endogenous TFAM (mitochondrial transcription factor A) of 786-O cells (protein, UniProt Q00059 43-246)
chain: SSVLASCPKKPVSSYLRFSKEQLPIFKAQNPDAKTTELIRRIAQRWRELPDSKKKIYQDAYRAEWQVYKEEISRFKEQLTPSQIMSLEKEIMDKHLKRKAMTKKKELTLLGKPKRPRSAYNVYVAERFQEAKGDSPQEKLKTVKENWKNLSDSEKELYIQHAKEDETRYHNEMKSWEEQMIEVGRKDLLRRTIKKQRKYGAEEC
On to B1, for which the binding entry in assay [1] is reported as “binds”; in assay [2], “no binding”; in assay [3], “binds”; in assay [4], “no binding (condition: EGLN3 downregulated with shRNA)”.
